US8288559B2, “Luminogenic compounds and methods to detect cytochrome P450 3A enzymes” (Promega Corporation, priority 2008, dated 2012)

Substrate: CC(C)OC(OC(C)C)C1CSC(c2nc3ccc(O)cc3s2)=N1
Assay: Concentration dependence of the CYP3A4 reaction with compound 3391
Type: biochemical, human
Conditions: other: CYP3A4 reaction, substrate inhibition model fit
Protocol: The reactions were performed as described for FIGS. 3-6 except no inhibitors were present in the reactions, and the concentration of compound 3391 varied as indicated in FIG. 7. Signals are expressed as net relative luminescent units (RLU) calculated by subtracting the background RLU values of control reaction mixtures that lack CYP3A4 enzyme from the RLU values of the CYP3A4 reactions. The curve fit was performed with the program GraphPad Prism™.
FIG. 7 illustrates the concentration dependence of the CYP3A4 reaction with compound 3391. […] The data fit well to a substrate inhibition model (R^2=0.99) described by the equation Y=(Vmax·X)/(Km+X+(X·X/Ki)), where X=substrate concentration, Y=activity in relative light units (RLU), Km=[…] and Ki=the substrate inhibition constant.

B1: CYP3A4 (Homo sapiens) (protein)
chain: MALIPDLAMETWLLLAVSLVLLYLYGTHSHGLFKKLGIPGPTPLPFLGNILSYHKGFCMFDMECHKKYGKVWGFYDGQQPVLAITDPDMIKTVLVKECYSVFTNRRPFGPVGFMKSAISIAEDEEWKRLRSLLSPTFTSGKLKEMVPIIAQYGDVLVRNLRREAETGKPVTLKDVFGAYSMDVITSTSFGVNIDSLNNPQDPFVENTKKLLRFDFLDPFFLSITVFPFLIPILEVLNICVFPREVTNFLRKSVKRMKESRLEDTQKHRVDFLQLMIDSQNSKETESHKALSDLELVAQSIIFIFAGYETTSSVLSFIMYELATHPDVQQKLQEEIDAVLPNKAPPTYDTVLQMEYLDMVVNETLRLFPIAMRLERVCKKDVEINGMFIPKGVVVMIPSYALHRDPKYWTEPEKFLPERFSKKNKDNIDPYIYTPFGSGPRNCIGMRFALMNMKLALIRVLQNFSFKPCKETQIPLKLSLGGLLQPEKPVVLKVESRDGTVSGA
notes: purchased Discovery Labware (Supersomes™); host or cells: insect cell expression system
Km: 2 µM
